Hit rate of the full screen: of about 46,000 compounds, about 60 (0.1%) were called active. About 3% were inconclusive and are not listed. The call rests on the fitted dose curve; in most records, active means well fitted inhibition curve with a large enough effect; inconclusive means small, poorly fitted or top-dose-only effect; inactive means no such curve, though single readings can be large or run the other way. Some of the results follow.
Test: Primary qHTS assay for Inhibitors of ovarian cancer metastasis using an organotypic tumor microenvironment (TME) model. Further: nearly all actives have a fitted effect of over 65% in size.
Settings: SKOV3ip1-GFP adhesion/invasion on 3D omental model, fluorescence; series mostly up to 45.8 µM; activity change, negative = inhibition: at the top concentration
Excerpt: PI: Ernst Lengyel MD., Ph.D. Department of Obstetrics and Gynecology, Section of Gynecologic Oncology University of Chicago Medicine, Chicago, Illinois. The tumor microenvironment (TME) is a key determinant of metastatic efficiency. We performed a quantitative high-throughput screen (qHTS) of diverse medicinal chemistry tractable scaffolds (44,420 compounds) and pharmacologically active small molecules (386 compounds) using a layered organotypic, robust assay representing the ovarian cancer metastatic TME. This 3D model contains primary human mesothelial cells, fibroblasts, and extracellular matrix, to which fluorescently labeled ovarian cancer cells are added. Initially, 100 compounds inhibiting ovarian cancer adhesion/invasion to the 3D model in a dose-dependent manner were identified. Of those, eight compounds were confirmed active in five high-grade serous ovarian cancer cell lines and were further validated in secondary in vitro and in vivo biological assays. […] Specifically, NCGC00117362 and PP-121 inhibited ovarian cancer adhesion, invasion, and proliferation, whereas milciclib inhibited ovarian cancer invasion and proliferation. […] To evaluate the clinical potential of NCGC00117362, structure - activity relationship studies were performed. […] The three compounds identified have promise as therapeutics for prevention and treatment of ovarian cancer metastasis.
PROTOCOL TABLE (as described by Inglese J, Shamu CE and Guy RK. 2007) SEQUENCE No. (e.g., 1, 2, 3, etc.); […] (e.g., Cells, Incubation, Reagent, etc.); VALUE; DESCRIPTION. 1; Cells; 4 uL; primary human omental fibroblast, black, clear bottom, low base, 1536-well Aurora assay plate. 2; Incubation; 48 hr; 37C. 3; Cells; 3 uL; 1,200 SKOV3ip1-GFP cells. 4; Compounds; 23nL; acoustic dispenser. 5; Incubation; 2 hr; room temperature. 6; Incubation; 16 hr; 37C. 7; Wash; 5 uL; 1x PBS. 8; Fixing; 5 uL; 4% paraformaldehyde (PFA). 9; Incubation; 15 min; room temperature 10; Wash, 5 uL; 1x PBS. 11; Detection; Fluorescence, excitation filter 488 nm, emission filter 509 nm. NOTES (numbers refer to Sequence numbers above) 1. For the 1,536-well format, 40 primary human omental fibroblasts and 400 mesothelial cells were seeded with 0.02 µg fibronectin and 0.02 µg collagen type I in 4 µL of growth media (2.3 mm2; Supplementary Fig. S1A). 2. Assay plates were incubated for 48 hours at 37 C. 3. After incubation, 1,200 SKOV3ip1-GFP were seeded in 3 µL of serum-free media (growth media minus FBS) on top of primary human omental cells. 4. Compounds or controls were added to each well immediately after the addition of the cancer cells. Compounds were screened in four doses (0.36-46 µmol/L), and the plates contained the positive control (Tomatine) in eight doses (0.035-75 µmol/L) and DMSO (equal volume controls) 5 - 6. The plates were incubated at room temperature for 2 hours and then at 37 degrees C for 16 hours. 7 - 10. Following incubation, the media were aspirated and each well washed with PBS (5 µL) and then fixed with 4% paraformaldehyde (PFA; 5 µL). After 15 minutes, the PFA solution was aspirated, PBS (5 µL) was added. 11. The number of GFP-labeled cells analyzed using a fluorescent cytometer TTP LabTech Acumen eX3 using 488 nm excitation filter and 509 nm emission filter. Data was normalized to the DMSO treated for negative and Tomatine treated wells for positive control. REFERENCES: Inglese J, Shamu CE and Guy RK, Reporting data from high throughput screening of small molecule libraries, Nature Chemical Biology, 2007, 3(8): 438-441. doi.org/10.1038/nchembio0807-438. Yasgar A, Shinn P, Jadhav A, Auld DS, Michael S, Zheng W, Austin CP, Inglese J and Simeonov A, Compound Management for Quantitative High-Throughput Screening. J. Assoc. Lab. Auto., 2008, 13: 79-89. doi: 10.1016/j.jala.2007.12.004.

Row | SMILES | activity change, negative = inhibition | outcome
1 | Cn1cc(C(=O)O)c(=O)c2cc(S(=O)(=O)N3CCCCC3)ccc21 | inactive: -1.49% | –
2 | CN(C)C(=O)c1ccc2c(c1)N(CC(=O)NCc1ccc(F)cc1)C(=O)C1CCCCN21 (stereo not drawn) | inactive: -0.522% | –
3 | COc1cccc(-c2cc(C(=O)NCc3ccccc3)[nH]n2)c1 | – | inactive
4 | Cn1c(SCC(=O)Nc2ccc(F)cc2)nc2c([nH]c3ccccc32)c1=O | inactive: 19% | –
5 | Cc1ccc2c(c1)cc1c(=O)n(CC(=O)NCc3ccco3)nc(C)n12 | – | inactive
6 | COc1cc(OC)cc(-c2nnc(SCC(=O)N3CCC(C)CC3)o2)c1 | inactive: 7.65% | –
7 | CC(=O)c1ccc(NC(=O)Cn2c(-n3nc(C)cc3C)nc(C)cc2=O)cc1 | inactive: 0.868% | –
8 | COc1ccc(CCNC(=O)CCn2c(=O)c3ccccc3n(CC(=O)Nc3cccc(C)c3)c2=O)cc1OC | – | inactive
9 | CC(C)(C)c1ccc(OCC(=O)N(Cc2ccco2)Cc2ccccc2F)cc1 | inactive: -8% | –
10 | COc1ccc(OC)c(C2C(C(N)=O)=C(C)Nc3nc(-c4cccc(Cl)c4)nn32)c1 (stereo not drawn) | inactive: -7.96% | –
11 | Cc1cccn2c(=O)c3cc(C(=O)NCCc4ccc(S(N)(=O)=O)cc4)n(C)c3nc12 | inactive: -6.87% | –
12 | CCOc1ccccc1Nc1sc(C(=O)c2ccc(Cl)cc2)c(N)c1C#N | inactive: 12.7% | –
13 | CCOc1ccc(NC(=O)NCCCN2CCN(c3ccc(OC)cc3)CC2)cc1 | – | inactive
14 | O=C(c1ccc(CSc2nc3ccncc3n2Cc2ccccc2F)cc1)N1CCCCC1 | inactive: -2.1% | –
15 | Cc1c(CCC(=O)NCCc2ccccc2F)c(=O)oc2cc(O)ccc12 | inactive: -4.05% | –
16 | CCc1ccc2c(c1)c(=O)c(C(=O)c1ccc(C)cc1)cn2CC(=O)Nc1ccc2c(c1)OCCO2 | inactive: -19.4% | –
17 | CC(C)c1ccc(NC(=O)CNC(=O)Cn2ccc3ccccc3c2=O)cc1 | inactive: -4.92% | –
18 | CN(C)c1ccc(/C=C(\C#N)c2nc3ccccc3c(=O)[nH]2)cc1 | inactive: -9.28% | –
19 | O=C(NCCc1ccccc1)c1cc(-c2ccccc2)nc2n[nH]c(-c3ccccc3)c12 | inactive: -21.2% | –
20 | O=C(NCc1ccc(F)cc1)c1cccc(N2CCCS2(=O)=O)c1 | inactive: 5.92% | –
21 | Cc1ccc(-c2cc(C(=O)NCCc3ccccc3)c3ccccc3n2)cc1C | inactive: 9.83% | –
22 | Cc1ccccc1NC(=O)Cn1c(=O)n(Cc2ccco2)c(=O)c2cccnc21 | inactive: -4.25% | –
23 | COC(=O)c1c(NC(=O)CCCOc2ccccc2)sc2c1CCC(C)C2 (stereo not drawn) | inactive: 6.84% | –
24 | Cc1ccc(Cl)cc1NC(=O)C1CCCN(S(=O)(=O)c2c(C)noc2/C=C/N(C)C)C1 (stereo not drawn) | inactive: -15.4% | –

Row | SMILES | activity change, negative = inhibition | outcome
25 | Cc1ccc2nc(/C(C#N)=C/c3ccc(-c4ccc(F)cc4F)o3)[nH]c2c1 | inactive: -11.2% | –
26 | O=C(Nc1ccccc1C(=O)OCc1cc(=O)n2ccsc2n1)c1cccc(F)c1 | – | inactive
27 | Cc1cc(Nc2cccc(Cl)c2)nc2ccc(NC(=O)c3ccc(F)cc3Cl)cc12 | inactive: -22.3% | –
28 | CCC(=O)N1CCc2cc(S(=O)(=O)CCC(=O)N(C)c3ccc(OC)cc3)ccc21 | – | inactive
29 | Fc1ccc(C2=NC(c3cccc(C(F)(F)F)c3)=Nc3ccccc3N2)cc1 | inactive: 1.43% | –
30 | Cc1ccc(CN2CCC(CNC(=O)Nc3c(C)cccc3C)C2)cc1 (stereo not drawn) | inactive: 5.74% | –
31 | COc1ccccc1-c1c(C)nn2c(C(F)(F)F)cc(-c3ccccc3)nc12 | inactive: 13.8% | –
32 | O=S1(=O)N=C(Nc2cccc(C(F)(F)F)c2)c2ccccc21 | inactive: -7.29% | –
33 | CN(C)CCN(Cc1ccc(Cl)cc1)c1ccccn1 | inactive: -4.09% | –
34 | O=C(c1ccc(CS(=O)c2ccccc2Cl)o1)N1CCN(c2ccccc2F)CC1 (stereo not drawn) | inactive: -34.3% | –
35 | CCc1ccc(S(=O)(=O)c2cn(C)c3cc(N4CCN(CC)CC4)c(F)cc3c2=O)cc1 | – | inactive
36 | COc1ccc(CCCc2nnc(SCC(=O)Nc3ccc(C)c(C)c3)o2)cc1 | inactive: 6.06% | –
37 | CC(C)NS(=O)(=O)c1ccc(OCC(=O)N2CCN(c3ccccc3F)CC2)cc1 | inactive: -3.76% | –
38 | Cc1cc(C)c2c(CC(=O)Nc3nnc(CC(C)C)s3)coc2c1 | inactive: 3.12% | –
39 | CSc1cccc(NC(=O)c2ccc3c(c2)c(C)c(C)n3Cc2ccc(F)cc2)c1 | inactive: -9.84% | –
40 | CC(C)(C)c1ccc(OCC(=O)Nc2c(C(=O)c3ccc(F)cc3)oc3ccccc23)cc1 | inactive: -1.12% | –
41 | COc1cccc(C(=O)N(Cc2cccc(Cl)c2)Cc2ccco2)c1 | inactive: 13.8% | –
42 | CCC(=O)Nc1cccc(-c2cn3c(C)csc3n2)c1 | – | inactive
43 | O=C(CCC1N=C2c3ccccc3N=C(SCc3cccc(Cl)c3)N2C1=O)NCc1cccs1 (stereo not drawn) | inactive: 1.45% | –
44 | Cc1nn(C)c2c1c(-c1ccccc1)cc(=O)n2CC(=O)NC(C)(C)C | inactive: 0.658% | –
45 | CCC(C)n1c(=N)c(S(=O)(=O)c2ccccc2)cc2c(=O)n3ccccc3nc21 (stereo not drawn) | inactive: 1.46% | –
46 | CCOC(=O)c1ccccc1NC(=O)CSc1ncc2c(n1)-c1ccccc1N(CC)S2(=O)=O | inactive: 3.32% | –
47 | Cc1ccc(NC(=O)Cn2c(=O)nc(-c3ccccc3F)c3cc(Cl)ccc32)c(Br)c1 | – | inactive
48 | CCOc1ccccc1NC(=O)N1CCN(Cc2cc(=O)n3nc(-c4ccc(C)cc4)sc3n2)CC1 | inactive: -1.39% | –

— PubChem BioAssay AID1963576 (National Center for Advancing Translational Sciences (NCATS), 2024)
